Assay [1] concerns the target T1, GFP-tagged C15ORF41, U2OS cells (human) (UniProt Q9Y2V0).
T1 sequence: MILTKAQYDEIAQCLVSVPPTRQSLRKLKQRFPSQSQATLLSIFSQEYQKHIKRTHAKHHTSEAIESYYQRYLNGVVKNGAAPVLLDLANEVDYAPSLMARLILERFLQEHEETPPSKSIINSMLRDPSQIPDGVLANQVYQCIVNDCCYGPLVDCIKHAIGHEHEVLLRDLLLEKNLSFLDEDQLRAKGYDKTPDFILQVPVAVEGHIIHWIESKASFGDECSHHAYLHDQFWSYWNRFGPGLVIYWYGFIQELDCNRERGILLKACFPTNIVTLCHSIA
Nature of the assay: co-IP; tagged GFP-C15ORF41 and RFP-Codanin-1; salt concentrations up to 1 M, RIPA buffer containing 0.1% SDS.

Assay [2] has as its target T1, GFP-tagged C15ORF41, U2OS cells (human). Kind of assay: co-IP; GFP-Trap affinity beads, ~0.5 mg of lysate of U2OS cells co-expressing GFP- and RFP-tagged proteins; western blotting with anti-GFP and anti-RFP. (In general: In western blotting, separated proteins are transferred to a membrane and probed.)
In assay [3] the target is T2, C15ORF41, endogenous in U2OS cells (human (endogenous in U2OS)) (UniProt Q9Y2V0).
T2 sequence: T1 sequence
Nature of the assay: co-IP; endogenous proteins from U2OS extracts; in-house anti-C15ORF41 or two commercial anti-Codanin-1 antibodies with protein G beads; western blotting; non-specific (anti-GFP) IgG as control.

Assay [4] addresses T3, C15ORF41, endogenous in HEK293 cells (human (endogenous in HEK293)) (UniProt Q9Y2V0).
T3 sequence: T1 sequence
Nature of the assay: SEC; ~20 mg whole-cell HEK293 extract on Superdex 200 16/60 in 50 mM Tris pH 7.5, 150 mM NaCl, 5% glycerol, 1 mM DTT, 0.03% Brij 35; fractions blotted for C15ORF41 and Codanin-1. On the technique in general: Size exclusion chromatography separates by hydrodynamic size, large species first.

Assay [5] has as its target T4, Codanin-1, endogenous in U2OS cells (human (endogenous in U2OS)) (UniProt Q8IWY9).
T4 sequence: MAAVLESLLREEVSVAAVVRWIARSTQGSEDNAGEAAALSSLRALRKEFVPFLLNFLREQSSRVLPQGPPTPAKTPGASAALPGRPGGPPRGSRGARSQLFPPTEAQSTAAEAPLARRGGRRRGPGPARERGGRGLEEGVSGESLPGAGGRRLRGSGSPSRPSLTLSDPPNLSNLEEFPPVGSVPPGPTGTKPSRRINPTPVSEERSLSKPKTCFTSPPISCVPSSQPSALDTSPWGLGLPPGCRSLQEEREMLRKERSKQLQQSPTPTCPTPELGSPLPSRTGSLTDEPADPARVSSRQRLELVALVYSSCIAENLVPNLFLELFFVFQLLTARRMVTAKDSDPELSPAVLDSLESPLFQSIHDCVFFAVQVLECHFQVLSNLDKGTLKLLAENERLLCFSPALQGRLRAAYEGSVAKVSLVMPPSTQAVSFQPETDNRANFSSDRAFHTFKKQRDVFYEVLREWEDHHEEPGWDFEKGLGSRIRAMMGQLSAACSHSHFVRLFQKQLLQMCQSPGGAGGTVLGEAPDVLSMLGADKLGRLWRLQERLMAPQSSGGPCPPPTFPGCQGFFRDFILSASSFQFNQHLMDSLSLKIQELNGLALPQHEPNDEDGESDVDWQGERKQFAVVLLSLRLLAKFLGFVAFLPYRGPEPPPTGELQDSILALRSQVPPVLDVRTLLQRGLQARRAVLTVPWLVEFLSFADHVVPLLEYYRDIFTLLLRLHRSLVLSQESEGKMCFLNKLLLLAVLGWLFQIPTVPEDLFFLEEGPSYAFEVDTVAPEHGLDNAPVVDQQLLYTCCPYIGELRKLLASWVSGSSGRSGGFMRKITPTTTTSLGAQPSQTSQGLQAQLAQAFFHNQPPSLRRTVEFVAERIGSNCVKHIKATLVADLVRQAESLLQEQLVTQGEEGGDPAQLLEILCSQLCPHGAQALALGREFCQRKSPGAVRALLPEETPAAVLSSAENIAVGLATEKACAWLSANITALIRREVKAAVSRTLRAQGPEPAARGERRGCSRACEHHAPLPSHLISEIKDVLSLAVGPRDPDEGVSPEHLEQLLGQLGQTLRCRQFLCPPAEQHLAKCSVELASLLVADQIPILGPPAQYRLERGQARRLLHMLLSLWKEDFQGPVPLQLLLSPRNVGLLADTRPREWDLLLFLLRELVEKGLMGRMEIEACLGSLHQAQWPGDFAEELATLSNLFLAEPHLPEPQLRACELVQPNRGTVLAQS
Nature of the assay: co-IP; endogenous proteins from U2OS extracts; in-house anti-C15ORF41 or two commercial anti-Codanin-1 antibodies with protein G beads; western blotting; non-specific (anti-GFP) IgG as control.

The target of assay [6] is T5, GFP-C15ORF41 (full-length; aa1-281) from the bicistronic plasmids (human) (UniProt Q9Y2V0).
T5 sequence: T1 sequence
Nature of the assay: co-IP; U2OS cells transiently transfected with bicistronic vectors co-expressing GFP-C15ORF41 and full-length or truncated RFP-Codanin-1; GFP-Trap beads; two-colour western blotting.

Positions count from the first letter of the chain named. In names and notes the source's numbering stands. No constants are given. Whether binding was seen depends on the method and setting. For some assays here: In cells and extracts the contact can be indirect. Some binding calls cover weakened binding; strength is not graded here. For some assays here: Sequences can lack the tags named with a protein.

B1: RFP-tagged Codanin-1, U2OS cells (protein, UniProt Q8IWY9 1-1227)
chain: T4 sequence
Turning to B1, the binding result in assay [1] and in assay [2] was “binds” in each case.

B2: Codanin-1, endogenous in U2OS cells (protein, UniProt Q8IWY9 1-1227)
chain: T4 sequence
For the molecule B2, in assay [3], the binding entry is “binds”.

B3: RFP-tagged Codanin-1 R714W, U2OS cells (protein, UniProt Q8IWY9 1-1227)
chain: T4 sequence with R714W
On to B3, for which the binding entry in assay [2] was “binds”.

B4: RFP-tagged Codanin-1 R1042W, U2OS cells (protein, UniProt Q8IWY9 1-1227)
chain: T4 sequence with R1042W
As for B4, in assay [2], the binding result is reported as “binds”.

B5: Codanin-1, endogenous in HEK293 cells (protein, UniProt Q8IWY9 1-1227)
chain: T4 sequence
On to B5, for which, in assay [4], the binding result is “binds”.

B6: C15ORF41, endogenous in U2OS cells (protein, UniProt Q9Y2V0 1-281)
chain: T1 sequence
Turning to B6, the binding entry in assay [5] is listed as “binds”.

B7: RFP-Codanin-1 M1-Q1000 (bicistronic plasmid) (domain or fragment, UniProt Q8IWY9 1-1000)
chain: MAAVLESLLREEVSVAAVVRWIARSTQGSEDNAGEAAALSSLRALRKEFVPFLLNFLREQSSRVLPQGPPTPAKTPGASAALPGRPGGPPRGSRGARSQLFPPTEAQSTAAEAPLARRGGRRRGPGPARERGGRGLEEGVSGESLPGAGGRRLRGSGSPSRPSLTLSDPPNLSNLEEFPPVGSVPPGPTGTKPSRRINPTPVSEERSLSKPKTCFTSPPISCVPSSQPSALDTSPWGLGLPPGCRSLQEEREMLRKERSKQLQQSPTPTCPTPELGSPLPSRTGSLTDEPADPARVSSRQRLELVALVYSSCIAENLVPNLFLELFFVFQLLTARRMVTAKDSDPELSPAVLDSLESPLFQSIHDCVFFAVQVLECHFQVLSNLDKGTLKLLAENERLLCFSPALQGRLRAAYEGSVAKVSLVMPPSTQAVSFQPETDNRANFSSDRAFHTFKKQRDVFYEVLREWEDHHEEPGWDFEKGLGSRIRAMMGQLSAACSHSHFVRLFQKQLLQMCQSPGGAGGTVLGEAPDVLSMLGADKLGRLWRLQERLMAPQSSGGPCPPPTFPGCQGFFRDFILSASSFQFNQHLMDSLSLKIQELNGLALPQHEPNDEDGESDVDWQGERKQFAVVLLSLRLLAKFLGFVAFLPYRGPEPPPTGELQDSILALRSQVPPVLDVRTLLQRGLQARRAVLTVPWLVEFLSFADHVVPLLEYYRDIFTLLLRLHRSLVLSQESEGKMCFLNKLLLLAVLGWLFQIPTVPEDLFFLEEGPSYAFEVDTVAPEHGLDNAPVVDQQLLYTCCPYIGELRKLLASWVSGSSGRSGGFMRKITPTTTTSLGAQPSQTSQGLQAQLAQAFFHNQPPSLRRTVEFVAERIGSNCVKHIKATLVADLVRQAESLLQEQLVTQGEEGGDPAQLLEILCSQLCPHGAQALALGREFCQRKSPGAVRALLPEETPAAVLSSAENIAVGLATEKACAWLSANITALIRREVKAAVSRTLRAQ
With B7, the binding result in assay [6] is given as “no binding”.

These data come from publication PMC7261414, “A complex comprising C15ORF41 and Codanin-1: the products of two genes mutated in congenital dyserythropoietic anaemia type I (CDA-I)” (Biochemical Journal, 2020).
